# Laboratory results published in PubChem BioAssay AID1345083 (National Center for Advancing Translational Sciences (NCATS), 2018).
# The campaign covered roughly 94,000 compounds. About 6,200 (6.6%) were called active. Inconclusive results, whose numbers are uncertain, are shown with a selection of clear calls. The call rests on the fitted dose curve; in most records, active means well fitted inhibition curve with a large enough effect; inconclusive means small, poorly fitted or top-dose-only effect; inactive means flat fitted curve, though single readings scatter. Potencies beside an inconclusive call are fits to weak or partial responses and may not hold up.
# Assay: Cytotoxic Profiling in HEK 293 Cell Line of Diverse Libraries Using Quantitative High-Throughput Screening; further: nearly all actives have a fitted effect of over 60% in size
# Conditions: HEK 293 viability, ATP luminescence (CellTiter-Glo), 48-72 h; activity change, negative = cytotoxicity: at 115 µM (top of the series) unless noted; series mostly up to 115 µM
# Outline: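 ATP-coupled CellTiter-Glo luminescence served as viability read-out, recorded 10 min after reagent addition at room temperature. HEK 293 cells, 250 cells/well, had been incubated with pintool-transferred compound for 48 or 72 hr at 37 degree Celsius.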
# On the % scale 0 is the no-effect control and ±100 the full control effect; potency means the concentration at half of the fitted maximal effect; tags describe the fitted curve by direction and shape.
Structure (SMILES),Potency,"activity change, negative = cytotoxicity",outcome
Cc1ccccc1-c1noc(CN(C)Cc2cc(-c3ccncc3)no2)n1,"inconclusive: 56.2 µM [inhibitor, partial curve, poor fit]",,
Cc1ccc(OCC(=O)N2CCC(Cc3nc(-c4ccccc4)no3)CC2)cc1,active: 39.8 µM,,
CNCc1ccc(N2CCCC2)cc1,"inconclusive: 126 µM [inhibitor, partial curve, poor fit]",,
COc1ccc(C)cc1NC(=O)COc1ccc(-c2nnc3n2CCCC3)cc1,"inconclusive: 79.4 µM [inhibitor, partial curve, poor fit]",,
COc1cccc([S+](=O)([O-])N2CCC3(CC2)CNC(=O)c2ccccc2O3)c1,"inconclusive: 56.2 µM [inhibitor, partial curve, poor fit]",,
c1coc(-c2nnc([C@H]3CCN(Cc4c[nH]c5ccccc45)C3)o2)c1,"inconclusive: 63.1 µM [inhibitor, full curve]",,
CC(C)N1C(=O)C2(CCCC2)C1C(=O)Nc1cccc(OC(F)(F)F)c1 (centres undefined),,inactive: -7.82%,
COC1C(=O)N(c2cccc(F)c2)C12CCN(C(=O)C1(c3ccccc3)CC1)CC2 (centres undefined),active: 44.7 µM,,
Cc1ccc(Nc2ccnc(N3CCCC3C(=O)N3CCC(c4ccccc4)CC3)n2)cc1 (centres undefined),active: 31.6 µM,,
CCC(=O)N1CCCN(Cc2ccncc2)C(c2ccccc2)CC(=O)NCC1 (centres undefined),,,inactive
O=C(c1ccc(F)cc1)N1CCC(C(=O)N2CCC(c3nc4ncccc4[nH]3)CC2)C1 (centres undefined),,inactive: 3.69%,
COc1ccc(-c2ccc(CN)cc2)cc1,"inconclusive: 112 µM [inhibitor, partial curve, poor fit]",,
COc1ccc(Nc2ccnc(N3CCCC(C(=O)NCCSC)C3)n2)cc1 (centres undefined),"inconclusive: 35.5 µM [inhibitor, partial curve, poor fit]",,
Cc1ccc(C2=NC3(CCN(C(=O)c4cc(F)ccc4Cl)CC3)ON2)cc1,"inconclusive: 39.8 µM [inhibitor, partial curve, poor fit]",,
CCOC(=O)c1ccc(NC(=O)Cn2c(N3CCCCC3)nc(C)c(C)c2=O)cc1,"inconclusive: 50.1 µM [inhibitor, partial curve, poor fit]",,
CNC(=O)CCn1ncc2cc(OC3CCc4cccc(-c5cccnc5)c43)ccc21 (centres undefined),active: 100 µM,,
CC(C)c1ccccc1NC(=O)Cn1ccn2nc(-c3ccccc3)c(CO)c2c1=O,"inconclusive: 44.7 µM [inhibitor, partial curve, poor fit]",,
O=C(Nc1ccc(Cl)cc1)N1CCC2(CC1)CC(=O)N(c1ccccc1)c1ccccc1O2,"inconclusive: 50.1 µM [inhibitor, partial curve, poor fit]",,
O=C(c1cnn2cc(CCO)cnc12)N1CCCC(CCc2ccc(F)cc2)C1 (centres undefined),"inconclusive: 44.7 µM [inhibitor, partial curve, poor fit]",,
O=C(CCC1CCCC1)N1CC[C@@H]2COCCN(Cc3ccncc3)[C@@H]2C1,"inconclusive: 89.1 µM [inhibitor, single point]",,
Cc1cc(C)nc(CNC2CCN(c3nc(C)nc4sccc34)CC2)n1,,inactive: -29.7%,
CCc1ccccc1OCC(=O)c1ccc2c(c1)N(CCCC(=O)NCCOC)C(=O)CO2,"inconclusive: 79.4 µM [inhibitor, partial curve, poor fit]",,
c1ccc(CCCNc2nccc(-c3ccccn3)n2)nc1,"inconclusive: 79.4 µM [inhibitor, partial curve, poor fit]",,

Structure (SMILES),Potency,"activity change, negative = cytotoxicity",outcome
COCCNC(=O)c1coc(COc2ccc3c(c2)C(c2cccc(F)c2)N(C(=O)C(C)C)CC3)n1 (centres undefined),"inconclusive: 8.91 µM [inhibitor, full curve, poor fit]",,
O=C(Cc1ccccn1)N1CCCC2(CN[S+](=O)([O-])c3cccnc3N2)C1 (centres undefined),,inactive: -6.92%,
COC(=O)[C@@H]1C[C@@H](NC(=O)C2CCN(C(=O)CC(C)C)CC2)CN1C,,inactive: -17.2%,
CNC(=O)[C@@H]1C[C@@H](n2cc(CN(C)C(=O)c3cccc(F)c3F)nn2)CN1,,inactive: 1.84%,
Cc1cc(NC(=O)C2CCN(C(=O)c3ncn4c3COC(c3ccc(F)cc3)C4)CC2)ccc1F (centres undefined),,inactive: -13.3%,
O=C(NCCc1ccccc1)C1CCCN1C(=O)c1cccc(-c2ccccn2)c1 (centres undefined),,inactive: 3.51%,
CC(=O)c1cc(C(=O)N2C[C@H]3CC[C@@H]2CN(CCCc2ccccc2)C3)cs1,"inconclusive: 44.7 µM [inhibitor, partial curve]",,
CCc1cccc(-n2nnnc2N2CCN(C(=O)Nc3ccc(C)c(F)c3)C(C)C2)c1 (centres undefined),"inconclusive: 89.1 µM [inhibitor, single point]",,
COc1ccc(CN[C@H]2[C@H](O)[C@H](O)C[C@@H]2c2ccc(C(F)(F)F)cc2)cc1,active: 44.7 µM,,
CCn1cnnc1-c1nn(C)c2c1CN(C(=O)CCc1ccc(OC)cc1)CC2,,,inactive
COc1ccc(OC)c(CNC(=O)C2Cn3cccc3C(=O)N2CC(C)C)c1 (centres undefined),,inactive: -0.466%,
COc1ccc(NC(=O)c2c(-c3cnn(C)c3NCc3ccc(C#N)cc3)noc2C)cc1,"inconclusive: 25.1 µM [inhibitor, full curve, poor fit]",,
COc1ccc(CCNC(=O)c2cn3cc(-c4ccc(C)cc4)sc3n2)cc1,,inactive: -14.4%,
CC(Cn1cncn1)NC(=O)c1ccc(CCC(C)(C)O)cc1 (centres undefined),,inactive: -17.1%,
CN1C(=O)C(CC(=O)N2CCCC2)=C2CCCCC21 (centres undefined),,inactive: 3.44%,
COc1ccc(-c2cnc(Nc3ccccc3)c3c2CCO3)cn1,"inconclusive: 35.5 µM [inhibitor, full curve, poor fit]",,
COc1ccccc1C(=O)N1CCCN(c2cc(-c3ccc(F)cc3)[nH]n2)CC1,"inconclusive: 50.1 µM [inhibitor, partial curve, poor fit]",,
O=C([C@@H]1C[C@H](F)CN1C(=O)NCc1ccco1)N1CCCCC1,,inactive: -0.166%,
O=C(Cc1ccc(F)cc1)NC1CCN(c2cc(-c3ccc(Cl)cc3)[nH]n2)CC1,,inactive: 1.39%,
Cc1cccc(C(=O)N2CCC(Oc3ccccc3-c3nc(C)no3)C2)c1 (centres undefined),"inconclusive: 89.1 µM [inhibitor, single point]",,
O=C(CCCc1ccccc1)NC1CCN(c2cc(-c3ccccc3)[nH]n2)CC1,"inconclusive: 50.1 µM [inhibitor, partial curve, poor fit]",,
O=C(Cn1nc2c(cc1=O)CCCC2)Nc1cccc2[nH]ccc12,,inactive: 8.59%,
CN1CCC(NC(=O)CC2(Cc3ccccc3)C(=O)N(C)c3ccccc32)CC1 (centres undefined),"inconclusive: 39.8 µM [inhibitor, partial curve, poor fit]",,

Structure (SMILES),Potency,"activity change, negative = cytotoxicity",outcome
COc1cccc(-c2ccc3c(n2)CN(Cc2ccc(F)cc2)C(=O)CO3)c1,active: 89.1 µM,,
CCNC(=O)[C@@H]1CCCN1C1(C(=O)NC)CCCCC1,,,inactive [at 230 µM]
CC1CCCC(C)N1C(=O)c1cc(-c2cc(Cl)cc(Cl)c2)c2nncn2n1 (centres undefined),,inactive: -14.2%,
CCOc1cc(=O)n2c(c1C(=O)Nc1ccc(OC)cc1C)CCCC2,,inactive: 6.18%,
CCCCn1c(=O)c(C(=O)N2CCN(C(=O)Nc3ccc(Cl)cc3)CC2)nc2cccnc21,,inactive: -24.1%,
Cc1nc(-c2c3n(c(=O)n(Cc4ccc(Br)cc4)c2=O)CCCCC3)no1,"inconclusive: 100 µM [inhibitor, single point]",,
Cc1cn2nc(C(=O)N3CCC(NC(=O)COc4ccc(F)cc4)CC3)cc2c(=O)[nH]1,,inactive: 13.7%,
CC(C(=O)NCc1ccccc1)C1CCOCC1 (centres undefined),,inactive: 13%,
COC[C@@H]1CN(C(=O)c2ccc(C)nc2)C[C@H]1c1ccccn1,,,inactive
CC(C)Oc1ccc(CN2CCC(C)(c3noc(C4CCOCC4)n3)CC2)cc1,,inactive: -14.2%,
Cc1cc2cc(-c3c(C)noc3C)nc(NCC3CC3)c2o1,"inconclusive: 44.7 µM [inhibitor, partial curve, poor fit]",,
Cc1cc(F)ccc1OC1CN(Cc2ccc(C(F)(F)F)cc2)C1,active: 100 µM,,
Cc1ccc(N2CCN(C(=O)c3noc(-c4ccc5c(c4)OCO5)n3)CC2)c(C)c1,"inconclusive: 89.1 µM [inhibitor, single point]",,
Cc1cccc(C(=O)NC2CCN(c3cc(-c4ccc(F)cc4)[nH]n3)C2)c1 (centres undefined),"inconclusive: 56.2 µM [inhibitor, partial curve, poor fit]",,
COc1ccc(C(=O)N2CCC3(CC2)C(OC)CN3c2cccc(F)c2)c(OC)c1 (centres undefined),"inconclusive: 50.1 µM [inhibitor, partial curve, poor fit]",,
Cc1ccc(C2=NC3(CCN(C(=O)c4ccc5cc[nH]c5c4)CC3)ON2)cc1,"inconclusive: 56.2 µM [inhibitor, partial curve, poor fit]",,
CC(C)CCN1CCC(N2CCN(S(=O)(=O)c3ccc4c(c3)CCCC4)CC2)C1=O (centres undefined),"inconclusive: 56.2 µM [inhibitor, partial curve, poor fit]",,
COc1cccc(N2C(=O)NC(=NC3CCCC3)C23CCN(C(=O)c2ccccc2OC)C3)c1 (centres undefined),,inactive: 1.54%,
Cc1ccc(-c2noc([C@@H]3C[C@H](NS(=O)(=O)c4ccc(Cl)cc4)CN3C)n2)cc1,active: 79.4 µM,,
COc1ccc(-c2cc(N3CCCC(NC(=O)Cc4ccsc4)C3)n[nH]2)cc1 (centres undefined),"inconclusive: 50.1 µM [inhibitor, partial curve, poor fit]",,
Cc1ccc(-c2cc(C(=O)NCCCc3ccccc3)c3cnn(C)c3n2)c(C)c1,"inconclusive: 50.1 µM [inhibitor, partial curve, poor fit]",,
CC1Oc2ccc(NC(=O)c3c(F)cccc3F)cc2CN(Cc2ccccc2F)C1=O (centres undefined),"inconclusive: 28.2 µM [inhibitor, full curve]",,
O=C(c1n[nH]c2c1CN(Cc1cccnc1)CC2)N1CCOCC1,,inactive: 8.04%,
